# Laboratory results published in PubChem BioAssay AID504444 (National Center for Advancing Translational Sciences (NCATS), 2011).
# Out of some 360,000 compounds screened, about 7,500 (2.1%) were called active. About 20% were inconclusive and are not listed. Calls follow the shape of the dose curve; as a rule, active = well fitted inhibition curve with a large enough effect; inconclusive = small, poorly fitted or top-dose-only effect, or effect the other way; inactive = flat fitted curve, though single readings scatter. This is a selection; strong and weak results do not stand in their true shares. Some structures have more than one record in an assay (separate samples or runs), and their calls can disagree.
# Assay: Nrf2 qHTS screen for inhibitors; also: nearly all actives have a fitted effect of over 60% in size
# Conditions: A549 ARE-Fluc reporter, luciferase luminescence, 18-24 h; series mostly up to 46 µM; activity change, negative = inhibition: at the top concentration
# Method in brief: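 Nrf2 activity is the BugLite luminescence, read 15 min after reagent at room temperature, following CellTiter-Fluor cytotoxicity readout (30 min, 37C). Compound titrations were applied for 18-24 h to 5000 A549 ARE_Fluc cells/well in 5% FBS OPTI-MEM.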
# % is scaled to controls: 0 for no effect and ±100 for the full control effect; potency is read from the fitted curve at half-maximal effect.
Compound,"activity change, negative = inhibition",Potency
COc1cccc(NC(=O)CSc2nc3ccccc3n2C)c1,inactive: 3.34%,
C=CC[C@@H](CC(=O)NCCO)C(=O)N[C@@H](COC(=O)[C@@H](CC=C)Cc1ccc(F)cc1)Cc1ccccc1,inactive: -5.86%,
O=C(COC(=O)c1cc([N+](=O)[O-])ccc1N1CCOCC1)Nc1ccc(Cl)cc1,,active: 18.4 µM
CCn1c(C)cc(C(=O)COC(=O)c2ccccc2[N+](=O)[O-])c1C,,active: 0.731 µM
OCC[C@H]1C[C@H](O)[C@@H](O)[C@]2(Cc3ccccc3CO2)O1,inactive: 5.74%,
C/C=C(/C)C(=O)OC1c2c(ccc3ccc(=O)oc23)OC(C)(C)C1OC(C)=O (stereo not given),inactive: -25%,
CCSc1ccc([C@@H]2[C@@H]3C(=O)N(C)C(=O)[C@@H]3[C@]3(C(=O)OC)CCCCN23)cc1OC,inactive: -9.37%,
CCOc1ccc(CN(C(=O)c2cc(=O)c3cc(C)cc(C)c3o2)C2CCS(=O)(=O)C2)cc1 (stereo not given),inactive: 2.24%,
CCCCOc1cc(C(=O)NCCN(CC)CC)c2ccccc2n1,inactive: 6.03%,
O=c1c2ccccc2ncn1-c1ccc(Cl)cc1,inactive: 17.1%,
COc1ccc(-n2c(=O)[nH]c3cc(C(=O)NCCc4ccccc4)ccc3c2=O)cc1OC,inactive: -19.7% [at 9.27 µM],
O=C(N[C@H]1C/C=C\C[C@H](CC(=O)N(CCO)Cc2ccccc2)C(=O)NC[C@H](c2ccccc2)OC1=O)OCC1c2ccccc2-c2ccccc21,inactive: -1.25%,
Cc1ccc(-n2ccn(CC(=O)NCCc3ccccc3)c(=O)c2=O)cc1C,inactive: 0.205%,
CC(C)Cn1cc(NC(=O)Nc2cccc(C(F)(F)F)c2)c2ccccc2c1=O,,active: 23.1 µM
O=S(=O)(c1ccc(Cl)cc1)N1CCN(c2ncnc3sccc23)CC1,,active: 20.6 µM
O=C(NN1C(=O)/C(=C\c2cccnc2)SC1=S)C(c1ccccc1)c1ccccc1,inactive: -27.6%,
C=Cc1ccc(Cn2nc(-c3ccc(C)cc3)ccc2=O)cc1,inactive: 12.7%,
CCn1c(SCC(=O)N/N=C/C=C/c2ccco2)nc2ccccc21,inactive: 9.64%,
Cc1ccccc1CNS(=O)(=O)c1csc(C(N)=O)c1,inactive: 23.9%,
COc1ccccc1CNC(=O)C(CC(C)C)NS(=O)(=O)c1ccc2c(c1)oc(=O)n2C (stereo not given),inactive: 5.55%,
CCC(=O)N1CCc2cc(S(=O)(=O)NCCC(=O)NCc3ccccc3Cl)ccc21,inactive: -5.39%,
CCOC(=O)c1cnc2ccccc2c1NCCc1ccc(OC)c(OC)c1,inactive: -18.9%,
O=C1CCN(CCc2ccccc2)CCN1[C@H](CSc1ccc(Br)cc1)Cc1ccccc1,inactive: -12.4%,

Compound,"activity change, negative = inhibition",Potency
Cc1ccc(Nc2nc(N)nc(CSc3nc4ccccc4s3)n2)cc1,inactive: -0.877%,
CCO[C@@H]1OC(C(=O)N2CCN(Cc3ccc4c(c3)OCO4)CC2)=C[C@H](C2CC2)[C@H]1CCCO,inactive: 12.1%,
Cc1ccc(CS(=O)(=O)c2ncc(Cl)c(C(=O)Nc3nnc(C(C)C)s3)n2)cc1,inactive: 0.49%,
O=C1OC[C@H]2CCCN2C(=O)[C@@H](CC(=O)N(CCO)Cc2ccccc2)C/C=C\CC[C@@H]1Cc1ccc(F)cc1,inactive: -8.44%,
Cc1ccccc1C(=O)c1cccn1CC(=O)NCc1ccc(Cl)cc1,inactive: 9.82%,
COc1cc(F)c(S(=O)(=O)N2CCCN(S(=O)(=O)c3cccc(N)c3)CC2)c(F)c1,inactive: -18.7%,
COc1ccc(CNC(=O)Cn2nc(C)n3cccc3c2=O)cc1,inactive: 13.7%,
COc1cc(C(CCN2CCN(c3ccccc3)CC2)c2c(OC)cc(OC)c3ccc(=O)oc23)cc(OC)c1OC (stereo not given),inactive: 4.59%,
Cc1cc2[nH]c(=O)c(=O)[nH]c2cc1S(=O)(=O)N1CCN(c2ccccc2)CC1,inactive: 13.3%,
N#C/C(=C\c1cccs1)c1nc2ccccc2[nH]1,inactive: 27.5%,
CCO[C@H]1OC(C(=O)NCc2ccccc2)=C[C@@H](c2cn(C(C)=O)c3ccccc23)[C@@H]1CCCO,inactive: -21.5%,
O=C(Nc1ccccc1)C1=C[C@H](c2ccc(C(F)(F)F)cc2)C[C@H](OCc2ccc(CO)cc2)O1,inactive: -24.4%,
CC(Oc1ccc2c(-c3ccccc3)cc(=O)oc2c1)C(=O)NCC1CCC(C(=O)O)CC1 (stereo not given),inactive: -0.103%,
O=C(NCC1CCOCC1)c1cc(COc2cccc(C(F)(F)F)c2)on1,,active: 23.1 µM
Cc1ccc2[nH]c3c(=O)n(CC(=O)NCc4ccco4)ncc3c2c1,inactive: 0.517%,
CSc1nc2nccc(-c3ccc(Oc4ccccc4)cc3)n2n1,,active: 18.4 µM
Cn1nc(C(=O)NCc2ccccc2)c2c1-c1ccccc1S(=O)(=O)C2,inactive: -18.8%,
O=C1NC[C@@H](c2ccccc2)OC(=O)[C@@H](Cc2ccc(F)cc2)CC/C=C/C[C@@H]1CC(=O)N(CCO)Cc1ccccc1,inactive: -11.1%,
Cc1c(Cl)cccc1NC(=O)Nc1ccc2snnc2c1,,active: 20.6 µM
Cc1cccc(CSc2ccc(-c3cccs3)nn2)c1,inactive: 16.7%,
O=C(N/C(=C/c1cccc([N+](=O)[O-])c1)C(=O)N1CCCCC1)c1cccs1,inactive: -0.432%,
O=C(N[C@@H]1C/C=C\C[C@@H](CC(=O)N(CCO)Cc2ccccc2)C(=O)N[C@H](Cc2ccccc2)COC1=O)OCC1c2ccccc2-c2ccccc21,inactive: -2.23%,
